Source: PubChem BioAssay AID652104 (National Center for Advancing Translational Sciences (NCATS), 2013)
Screen size: about 410,000 compounds; about 7,200 (1.8%) were called active. The inconclusive results got no clear call from the source; some entries with a clear call stand among them for comparison. Calls come from the whole dose curve; as a rule, active = well fitted activation curve with a large enough effect; inconclusive = small, poorly fitted or top-dose-only effect, or another doubt; inactive = no such curve, though single readings can be large or run the other way. Potencies beside an inconclusive call are fits to weak or partial responses and may not hold up.

assay: qHTS of TDP-43 Inhibitors; details: TDP-43 expressing yeast growth rescue, BacTiter-Glo, 24 h; growth rescue (activation): at 46.1 µM (top of the series) unless noted; note: nearly all actives have a fitted effect of over 50% in size; for growth rescue (activation): % of control where 0% means no effect
Summary of the method: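 Luminescence from BacTiter-Glo reports growth of TDP-43-expressing yeast after 24 hr at 30 deg C with compound. Cells were raffinose-pregrown to mid-log, then seeded in galactose medium at OD600=0.02.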
Potency is the fitted concentration of half-maximal effect; tags give direction and shape of the fitted curve.

Potency, inconclusive:
CCOc1ccc2nc(Nc3nc4ccc(NC(C)=O)cc4s3)sc2c1 12.6 µM [activator, single point]
N#Cc1cncc(-c2ccc3c(c2)OCCOCCOCCOCCOCCO3)n1 14.1 µM [activator, single point]
COc1ccc(C)cc1S(=O)(=O)n1cnc2ccccc21 15.8 µM [activator, partial curve]
CC(=O)N1CCc2cc(CNC(=O)Nc3cc(Cl)ccc3C)ccc21 12.6 µM [activator, partial curve]
Fc1ccccc1-n1ncc2c1ncn1nc(-c3ccccc3Cl)nc21 7.08 µM [activator, full curve, poor fit]
O=C(Nc1nc2ccc(F)cc2s1)c1cccs1 2.51 µM [activator, partial curve]
CN(C(=O)COC(=O)/C=C/c1ccc2ccccc2n1)c1c(N)n(Cc2ccccc2)c(=O)[nH]c1=O 8.91 µM [activator, partial curve]
CCOC(=O)c1cc2sccc2n1CC(=O)N1CCCc2ccccc21 12.6 µM [activator, single point]
COc1ccc2cc(-c3nc(Cl)c4c5c(sc4n3)CCCC5)c(=O)oc2c1 0.316 µM [activator, full curve, poor fit]
Cc1cccc(C(=O)OCN2C(=O)c3ccccc3C2=O)c1[N+](=O)[O-] 2.82 µM [activator, full curve, poor fit]

Potency, active:
Oc1ccccc1N1CCN(c2ncnc3scc(-c4ccc(F)cc4)c23)CC1 22.4 µM
O=C(Cc1ccccc1)n1nc(-c2ccco2)nc1SCc1ccccc1 11.2 µM
Cc1ccc(Nc2cc(C)c(O)c(C)c2)cc1 12.6 µM
COc1ccc(C2N(c3ccc(Cl)cc3)N=C(C(C)=O)N(C)N2C(C)=O)cc1 (stereo not given) 22.4 µM

Potency, inactive:
Cc1ccc(CNC(=O)c2ccc(CSCc3ccccc3Cl)o2)cc1
O=C(O)CN1C(=O)/C(=C/C=C/c2ccccc2)SC1=S
COC(=O)C1CSC(C(=O)OC)N1C(=O)Nc1ccc(Cl)cc1 (stereo not given)
Cc1ccc(C2(c3ccc(C)cc3)NC(=O)N(CC(N)=O)C2=O)cc1
COc1ccc(NC(=O)Cn2c(=O)n(Cc3ccco3)c(=O)c3cc(OC)c(OC)cc32)cc1

Growth rescue (activation), inconclusive:
COc1cc(SSc2cc(OC)cc([N+](=O)[O-])c2N)c(N)c([N+](=O)[O-])c1 -92.5% [activator]
